Measurements: publication PMC4336329 (PLoS ONE, 2015)
The campaign covered roughly 310,000 compounds. About 2,200 (0.71%) showed an effect of 50% or more. The effect is printed as a negative number. The list shows a part of the results.

molecular target: human ether-à-go-go-related gene (hERG) potassium channel (human, UniProt Q12809); assay: primary screen, population patch clamp on CHO cells stably expressing hERG
Sequence (Q12809 whole entry, looked up): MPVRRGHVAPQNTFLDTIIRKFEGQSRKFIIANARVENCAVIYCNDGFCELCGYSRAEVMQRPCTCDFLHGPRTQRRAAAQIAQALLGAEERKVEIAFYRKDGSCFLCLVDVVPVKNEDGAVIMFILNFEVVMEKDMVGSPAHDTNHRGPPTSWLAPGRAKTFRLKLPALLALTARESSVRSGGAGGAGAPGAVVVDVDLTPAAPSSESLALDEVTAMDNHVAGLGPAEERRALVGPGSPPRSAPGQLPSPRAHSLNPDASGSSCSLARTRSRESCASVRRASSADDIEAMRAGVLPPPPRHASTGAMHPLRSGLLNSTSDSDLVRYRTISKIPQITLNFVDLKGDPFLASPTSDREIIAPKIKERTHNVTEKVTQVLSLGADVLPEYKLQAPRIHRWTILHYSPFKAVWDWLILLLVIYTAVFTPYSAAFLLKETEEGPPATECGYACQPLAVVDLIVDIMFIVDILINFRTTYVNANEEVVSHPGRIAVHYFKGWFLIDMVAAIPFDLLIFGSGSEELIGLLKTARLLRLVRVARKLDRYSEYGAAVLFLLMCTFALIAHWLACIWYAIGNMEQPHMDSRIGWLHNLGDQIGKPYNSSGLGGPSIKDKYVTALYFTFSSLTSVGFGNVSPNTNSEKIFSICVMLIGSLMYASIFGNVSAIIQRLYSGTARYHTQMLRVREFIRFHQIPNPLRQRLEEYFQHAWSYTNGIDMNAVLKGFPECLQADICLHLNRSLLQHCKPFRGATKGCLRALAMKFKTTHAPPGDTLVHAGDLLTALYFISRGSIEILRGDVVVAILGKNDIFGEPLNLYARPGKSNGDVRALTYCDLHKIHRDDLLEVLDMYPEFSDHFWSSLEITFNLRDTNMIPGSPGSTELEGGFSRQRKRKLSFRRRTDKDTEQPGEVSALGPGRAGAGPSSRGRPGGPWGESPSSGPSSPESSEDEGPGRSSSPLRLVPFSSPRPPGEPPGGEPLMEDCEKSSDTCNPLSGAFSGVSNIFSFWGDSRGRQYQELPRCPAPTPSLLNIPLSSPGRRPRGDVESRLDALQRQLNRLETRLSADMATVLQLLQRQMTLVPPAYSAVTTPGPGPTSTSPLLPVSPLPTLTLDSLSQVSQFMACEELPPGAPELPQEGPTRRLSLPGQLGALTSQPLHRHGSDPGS

In order of rising “hERG current change (%, negative = inhibition) at 1uM” value:
1. COc1ccccc1/C=C/CN1CCC(Oc2cc(C(=O)NC3CC3)ccc2OC)CC1  -78.3%
2. CCCCCn1c(=NC(=O)c2ccco2)c(C(=O)OCC)cc2c(=O)n3ccccc3nc21  -30.9%
3. Cc1ccc(OCC(=O)Nc2ccc(CN3CCOCC3)cc2)cc1C  -14.9%
4. CCCNC(=O)OC[C@H]1O[C@H](CCO/N=C/C[C@@H]2C=C[C@H](OC(C)=O)[C@@H](COC(C)=O)O2)C=C[C@@H]1Oc1ccc(OC)cc1  -12.8%
5. O=[N+]([O-])c1ccc(Sc2ccc(Cl)c(Cl)c2)nc1  -11.9%
6. O=C1NC(c2ccc(Br)cc2)Nc2sc3c(c21)CCC3 (centres unmarked)  -7.92%
7. O=C(CSCc1ccc([N+](=O)[O-])cc1)NC1CC1  -7.58%
8. Cc1cc(C(=O)NCCCN2CC(C)CC(C)C2)n(-c2ccccc2)n1 (centres unmarked)  -7.31%
9. Cc1cc(C)cc(C(=O)NCC(=O)OCc2c(C)noc2C)c1  -3.93%
10. CC(=O)c1cccc(CN2CCCCC2C(=O)Nc2ccc(Oc3ccccc3)nc2)c1 (centres unmarked)  0.714%
11. CCCCOc1ccccc1NC(=O)c1ccco1  1.86%
12. Cc1nnc(N/N=C/c2cccs2)[nH]c1=O  2.15%
13. CCN(CC(=O)Nc1ccc(C)c(S(=O)(=O)N(C)C)c1)Cc1ccccc1.O=C(O)C(=O)O  2.49%
14. COC(=O)c1cccc(Cn2cc([N+](=O)[O-])cn2)c1  4.93%
15. CCC(C)(C)NC(=O)/C=C/c1ccccc1[N+](=O)[O-]  5.36%
16. CC(C)n1c(SCC(=O)Nc2nc3c(s2)CCCC3)nc2c1c(=O)n(C)c(=O)n2C  5.51%
17. O=C(O)c1ccc(NS(=O)(=O)c2cccc(S(=O)(=O)c3ccc(Cl)c(Cl)c3)c2)cc1  5.71%
18. Cc1cccc(CSc2ccc3nnc(-c4cccs4)n3n2)c1  5.73%
19. Cc1ccc(OCCOCCOc2cccc3cccnc23)c(Br)c1  5.75%
20. COc1ccc(CNC(=O)c2cccc3c2C(=O)N(CC2CCCO2)C3)cc1 (centres unmarked)  6.13%
21. CCCCOc1ccc(-c2ncc([N+](=O)[O-])cn2)cc1  6.4%
22. COc1ccc(C2CC(c3ccccc3)=NN2C(=O)COC(=O)/C=C/c2ccc(O)c(OC)c2)cc1 (centres unmarked)  6.56%
23. O=C(O)C(=O)O.c1ccc2c(c1)CCN(C1CCCCC1)C2  6.77%
24. Cc1cc(Cl)c2oc(C(=O)N3CCN(C(=O)c4ccco4)CC3)c(C)c2c1  7.14%
25. Cc1onc(-c2ccccc2)c1C(=O)N1CCN(C(=O)c2ccco2)CC1  7.56%
26. O=S(=O)(c1ccc(F)cc1)N1CCCN(c2nccc(C(F)(F)F)n2)CC1  7.57%
27. CCC(C)NS(=O)(=O)c1ccc(S(=O)(=O)N2CCCC3(CCCCC3)C2)cc1 (centres unmarked)  7.81%
28. COc1ccc(NC(=S)NC(NC(=O)C(C)C)C(Cl)(Cl)Cl)c([N+](=O)[O-])c1 (centres unmarked)  8.63%
29. CC1Sc2ccc(S(=O)(=O)NCCc3ccccc3)cc2NC1=O (centres unmarked)  8.96%
30. Cc1cccn2c(=O)c3cc(C(=O)NC4CCCC4)n(C)c3nc12  9.12%
31. COc1ccccc1-c1cc(-c2ccccc2)nc(=O)[nH]1  9.21%
32. CCOC(=O)c1c(Cc2ccccc2)c[nH]c1C  9.38%
33. O=C(CN1CCCc2ccccc21)N/N=C/c1ccc(F)cc1F  9.8%
34. N#Cc1ccc(-c2ccc(Cl)cc2)nc1Oc1ccc(F)cc1  10.2%
35. NC(=O)C1CCN(S(=O)(=O)c2cccc(C(=O)O)c2)CC1  10.4%
36. O=C(Nc1ccccc1C(=O)N/N=C/c1ccco1)c1ccc(Cl)cc1  11.3%
37. CCc1ccn2cc(-c3cc(-c4ccccc4)no3)nc2c1  11.8%
38. CCCCc1ccc(NC(=S)NCCc2ccc(S(N)(=O)=O)cc2)cc1  12.2%
39. COc1ccc(-c2noc(CN(C)Cc3ccccc3)n2)c(OC)c1OC  12.9%
40. COc1cc2cc(CN(CCN3CCOCC3)C(=O)Nc3ccc(F)cc3)c(=O)[nH]c2cc1OC  13.4%
41. NC(=O)c1ccc[n+](CC(=O)c2ccc(Br)cc2)c1.[Br-]  13.7%
42. O=C(O)CCC(=O)N1CC=C(c2ccccc2)CC1  14.5%
43. CCCCN(CC)S(=O)(=O)c1ccc(C(=O)N=c2sc3cc(NC(C)=O)ccc3n2C)cc1  14.5%
44. CSc1nc2sc3c(c2c(=S)[nH]1)CC(C)(C)OC3  15.1%
45. Cc1nn2c(-c3cccnc3)ccnc2c1-c1ccccc1  15.6%
46. O=C(NNC(=O)c1ccc(Cl)c([N+](=O)[O-])c1)c1ccncc1  15.6%
47. COc1ccc(CNn2cnnc2)c(O)c1  15.8%
48. O=C(Oc1ccccc1Cl)c1ccc(-n2cncn2)nc1  16.3%
49. O=C(Nc1nnc(C2=COCCO2)o1)c1ccc(S(=O)(=O)N2CCCCC2)cc1  16.4%
50. O=C(O)c1cccc(NC(=O)c2ccc3c(c2)C(=O)N(Cc2ccco2)C3=O)c1  16.5%
51. COc1ccc(-n2c(SCC(=O)Nc3ccc(NC(C)=O)cc3)nc3ccccc3c2=O)cc1  16.8%
52. CC(OC(=O)c1ccc(S(=O)(=O)NCc2ccco2)cc1)C(=O)Nc1ncc(Cl)cc1Cl (centres unmarked)  17%
53. CCOC(=O)C(=CNc1cccc(C)c1C)C(=O)OCC  18.8%
54. COc1ccc(S(=O)(=O)n2nc(OC(=O)c3ccco3)cc2N)cc1  19.6%
55. Cc1cc2c(s1)NC(=O)CN=C2c1cccs1  22%
56. Cc1ccc(C)c(Cn2nnc3c(=O)[nH]c(C4CCN(S(=O)(=O)c5ccc(S(=O)(=O)N(C)C)cc5)CC4)nc32)c1  22.8%
